# In the supplement of paper PMC8728848:
# This is one part of the list.
# B1: PX9961X-pdi-531-24-531 (Parabacteroides distasonis) (protein)
# chain: DLTEEIHSSVIAENYYNNAGEVMAAMMRPWGHFCGTMQVAQSPWSCNELSSDCAAWPQKGRHGYDNGDWIRLHRHQWIPTDGQVVDAWKKLFEGIGYANNFLTDTENIDFEALQVPMSKAQAQAEMRVYRAYCYWYVMDMFGTAPICEKIGEINPSSKSRAELFAWIEKELNESIPSLSESKTETYGRVSKWGAYALLARLYLNAEIYTGQARWDDCIAACDELAKGGFALDKKWNDTFRADNDKRSTEIIWSIVYDEVYAKGMGWYQRWLHYAHQTGWDLQSGPWNGLVTQPTFYDSFADNDLRKIEGFLIGKQYPRKVDENGNYYYDTTAEPLKGSEEYNGQDLVFVNYIKSMTEGEENSGARSIKYEIQPGTTGDMNNDWVMFRYSEVIYNKAEALMRKNGGKATQEVVDMINSVRQRSFKAEDWEKAKYTTATLTMDEFLAEKGREFAFEGIRRTDLVRFNKFVTTSWWDKTASNEPKRNIFPIPQRQLDANANLSPNEANSLF
# Legend:
# Assay in all cases: glycan array binding signal (z-score within array); higher = stronger binding
# Details in all cases: glycan notation: IUPAC condensed, linker removed
# [1] = target: Gal(a1-3)Gal(b1-4)GlcNAc(b1-2)Man
# Summary of the method: (§1)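 The binding signal is a Z-score computed within each array. Data were drawn from 3228 arrays in the Consortium for Functional Glycomics database, restricted to those with a known protein sequence. Scores were averaged over arrays of the same protein sequence at different concentrations or buffers, and over linkers, and negative values can be taken as non-binding.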
# [2] = target: Gal(a1-3)Gal(b1-4)GlcNAc(b1-2)Man(a1-3)[Gal(a1-3)Gal(b1-4)GlcNAc(b1-2)Man(a1-6)]Man(b1-4)GlcNAc(b1-4)GlcNAc
# Summary of the method: as §1
# [3] = target: Gal(a1-3)Gal(b1-4)GlcNAc(b1-3)GalNAc
# Summary of the method: as §1
# [4] = target: Gal(a1-3)Gal(b1-4)GlcNAc(b1-6)GalNAc
# Summary of the method: as §1
# [5] = target: Gal(a1-3)Gal(b1-4)[Fuc(a1-3)]GlcNAc
# Summary of the method: as §1
# [6] = target: Gal(a1-3)Gal(b1-4)[Fuc(a1-3)]GlcNAc(b1-2)Man(a1-3)[Gal(a1-3)Gal(b1-4)[Fuc(a1-3)]GlcNAc(b1-2)Man(a1-6)]Man(b1-4)GlcNAc(b1-4)GlcNAc
# Summary of the method: as §1
# Gal(a1-3)GalNAc = target: Gal(a1-3)GalNAc
# Summary of the method: as §1
# [7] = target: Gal(a1-3)[Gal(a1-4)]Gal(b1-4)GlcNAc
# Summary of the method: as §1
# [8] = target: Gal(a1-4)Gal(b1-3)GlcNAc(b1-2)Man(a1-3)[Gal(a1-4)Gal(b1-3)GlcNAc(b1-2)Man(a1-6)]Man(b1-4)GlcNAc(b1-4)GlcNAc
# Summary of the method: as §1
# Gal(a1-4)Gal(b1-4)Glc = target: Gal(a1-4)Gal(b1-4)Glc
# Summary of the method: as §1
# Gal(a1-4)Gal(b1-4)GlcNAc = target: Gal(a1-4)Gal(b1-4)GlcNAc
# Summary of the method: as §1
# [9] = target: Gal(a1-4)Gal(b1-4)GlcNAc(b1-2)Man(a1-3)[Gal(a1-4)Gal(b1-4)GlcNAc(b1-2)Man(a1-6)]Man(b1-4)GlcNAc(b1-4)GlcNAc
# Summary of the method: as §1
# [10] = target: Gal(a1-4)Gal(b1-4)GlcNAc(b1-3)Gal(b1-4)Glc
# Summary of the method: as §1
# Gal(a1-4)GlcNAc = target: Gal(a1-4)GlcNAc
# Summary of the method: as §1
# Gal(a1-6)Glc = target: Gal(a1-6)Glc
# Summary of the method: as §1
# Gal(b1-2)Gal = target: Gal(b1-2)Gal
# Summary of the method: as §1
# Gal(b1-3)Gal = target: Gal(b1-3)Gal
# Summary of the method: as §1
# Gal(b1-3)Gal(b1-4)GlcNAc = target: Gal(b1-3)Gal(b1-4)GlcNAc
# Summary of the method: as §1
# Gal(b1-3)GalNAc = target: Gal(b1-3)GalNAc
# Summary of the method: as §1
# [11] = target: Gal(b1-3)GalNAc(a1-3)[Fuc(a1-2)]Gal(b1-4)Glc
# Summary of the method: as §1
# [12] = target: Gal(b1-3)GalNAc(a1-3)[Fuc(a1-2)]Gal(b1-4)GlcNAc
# Summary of the method: as §1
# Gal(b1-3)GalNAc(b1-3)Gal = target: Gal(b1-3)GalNAc(b1-3)Gal
# Summary of the method: as §1
# [13] = target: Gal(b1-3)GalNAc(b1-3)Gal(a1-4)Gal(b1-4)Glc
# Summary of the method: as §1
# [14] = target: Gal(b1-3)GalNAc(b1-4)Gal(b1-4)Glc
# Summary of the method: as §1
# [15] = target: Gal(b1-3)GalNAc(b1-4)[Neu5Ac(a2-3)]Gal(b1-4)Glc
# Summary of the method: as §1
# Gal(b1-3)GlcNAc = target: Gal(b1-3)GlcNAc
# Summary of the method: as §1
# [16] = target: Gal(b1-3)GlcNAc(a1-3)Gal(b1-4)GlcNAc
# Summary of the method: as §1
# [17] = target: Gal(b1-3)GlcNAc(a1-6)Gal(b1-4)GlcNAc
# Summary of the method: as §1
# Gal(b1-3)GlcNAc(b1-2)Man = target: Gal(b1-3)GlcNAc(b1-2)Man
# Summary of the method: as §1
# [18] = target: Gal(b1-3)GlcNAc(b1-2)Man(a1-3)[Gal(b1-3)GlcNAc(b1-2)Man(a1-6)]Man(b1-4)GlcNAc(b1-4)GlcNAc
# Summary of the method: as §1
# [19] = target: Gal(b1-3)GlcNAc(b1-2)Man(a1-3)[Gal(b1-3)GlcNAc(b1-2)Man(a1-6)]Man(b1-4)GlcNAc(b1-4)[Fuc(a1-6)]GlcNAc
# Summary of the method: as §1
# [20] = target: Gal(b1-3)GlcNAc(b1-2)Man(a1-3)[GlcNAc(b1-4)][Gal(b1-3)GlcNAc(b1-2)Man(a1-6)]Man(b1-4)GlcNAc(b1-4)GlcNAc
# Summary of the method: as §1
# [21] = target: Gal(b1-3)GlcNAc(b1-2)[Gal(b1-3)GlcNAc(b1-6)]Man(a1-6)[Gal(b1-3)GlcNAc(b1-2)Man(a1-3)]Man(b1-4)GlcNAc(b1-4)GlcNAc
# Summary of the method: as §1
# [22] = target: Gal(b1-3)GlcNAc(b1-3)Gal(b1-3)GlcNAc
# Summary of the method: as §1
# [23] = target: Gal(b1-3)GlcNAc(b1-3)Gal(b1-4)Glc
# Summary of the method: as §1
# [24] = target: Gal(b1-3)GlcNAc(b1-3)Gal(b1-4)GlcNAc
# Summary of the method: as §1
# [25] = target: Gal(b1-3)GlcNAc(b1-3)Gal(b1-4)GlcNAc(b1-2)Man(a1-3)[Gal(b1-3)GlcNAc(b1-3)Gal(b1-4)GlcNAc(b1-2)Man(a1-6)]Man(b1-4)GlcNAc(b1-4)GlcNAc
# Summary of the method: as §1
binder,measurement,setting,value
B1,glycan array binding signal (z-score),[1],-0.389
same,glycan array binding signal (z-score),[2],0.935
same,glycan array binding signal (z-score),[3],-0.006
same,glycan array binding signal (z-score),[4],-0.439
same,glycan array binding signal (z-score),[5],-0.393
same,glycan array binding signal (z-score),[6],-0.568
same,glycan array binding signal (z-score),Gal(a1-3)GalNAc,-0.345
same,glycan array binding signal (z-score),[7],7.26
same,glycan array binding signal (z-score),[8],0.46
same,glycan array binding signal (z-score),Gal(a1-4)Gal(b1-4)Glc,0.003
same,glycan array binding signal (z-score),Gal(a1-4)Gal(b1-4)GlcNAc,-0.18
same,glycan array binding signal (z-score),[9],0.807
same,glycan array binding signal (z-score),[10],-0.094
same,glycan array binding signal (z-score),Gal(a1-4)GlcNAc,-0.121
same,glycan array binding signal (z-score),Gal(a1-6)Glc,-0.045
same,glycan array binding signal (z-score),Gal(b1-2)Gal,-0.807
same,glycan array binding signal (z-score),Gal(b1-3)Gal,0.564
same,glycan array binding signal (z-score),Gal(b1-3)Gal(b1-4)GlcNAc,0.853
same,glycan array binding signal (z-score),Gal(b1-3)GalNAc,-0.208
same,glycan array binding signal (z-score),[11],0.221
same,glycan array binding signal (z-score),[12],-0.348
same,glycan array binding signal (z-score),Gal(b1-3)GalNAc(b1-3)Gal,-0.193
same,glycan array binding signal (z-score),[13],-0.549
same,glycan array binding signal (z-score),[14],-0.662
same,glycan array binding signal (z-score),[15],-0.181
same,glycan array binding signal (z-score),Gal(b1-3)GlcNAc,-0.517
same,glycan array binding signal (z-score),[16],-0.425
same,glycan array binding signal (z-score),[17],0.342
same,glycan array binding signal (z-score),Gal(b1-3)GlcNAc(b1-2)Man,0.516
same,glycan array binding signal (z-score),[18],4.29
same,glycan array binding signal (z-score),[19],0.18
same,glycan array binding signal (z-score),[20],-0.202
same,glycan array binding signal (z-score),[21],0.936
same,glycan array binding signal (z-score),[22],-0.107
same,glycan array binding signal (z-score),[23],-0.83
same,glycan array binding signal (z-score),[24],-0.403
same,glycan array binding signal (z-score),[25],-0.341
